These results are taken from the supplement of paper PMC9588766.

Each structure is given as a SMILES string. Structures can show the parent of a compound that is named as a salt. ± gives the standard deviation of the averaged measurements. Over roughly 2,000 compounds, “cell viability relative to DMSO control (compound alone)” has its median near 0.98; the lowest 2% begin near 0.23. The list shows a part of the results.

In the test the test system is PDC-DUC18828. Description: cell viability relative to DMSO control (compound alone) (fraction); PDC-DUC18828 is a patient-derived cholangiocarcinoma cell line; higher = less growth inhibition. To be noted: 1 µM; 72 h. Here is the method: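 Selleck Bioactive library screen in the patient-derived FGFR2-G3BP2 fusion-positive ICC cell line PDC-DUC18828 (500 cells/well). Each compound was tested at 1 uM alone, in triplicate, for 72 h. Viability was read by CellTiter-Glo and normalised to plate DMSO controls.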
Take `COc1cc(Nc2ncc(F)c(Nc3ccc4c(n3)N(COP(=O)(O)O)C(=O)C(C)(C)O4)n2)cc(OC)c1OC` [Fostamatinib (R788)]: the cell viability came out at 0.837 ± 0.05.
As for `Cn1c(=O)cc(N2CCC[C@@H](N)C2)n(Cc2ccccc2C#N)c1=O` [Alogliptin], the figure is 0.995 ± 0.029; as for `CC1(C)S[C@@H]2[C@H](NC(=O)[C@H](NC(=O)N3CCN(S(C)(=O)=O)C3=O)c3ccccc3)C(=O)N2[C@H]1C(=O)O` [Mezlocillin Sodium], 1.06 ± 0.057; as for `Cc1nnc(C(C)C)n1C1C[C@H]2CC[C@@H](C1)N2CC[C@H](NC(=O)C1CCC(F)(F)CC1)c1ccccc1` (stereo in doubt) [Maraviroc], 1.02 ± 0.038.
The compound `CCCCCCCN(CC)CCCC(O)c1ccc(NS(C)(=O)=O)cc1` (configuration not stated) [Ibutilide Fumarate] returned a cell viability of 1.04 ± 0.041.
Under `COc1cnc(NS(=O)(=O)c2ccc(N)cc2)nc1` [Sulfameter] stands 1.07 ± 0.083.
As for `O=NN(CCCl)C(=O)NC1CCCCC1` [Lomustine], the figure is 0.9169 ± 0.0047; as for `COc1cc(CCC(C)=O)ccc1O` [Vanillylacetone], 1.02 ± 0.054.
Under `CC(C)c1cc(C(=O)N2Cc3ccc(CN4CCN(C)CC4)cc3C2)c(O)cc1O` stands 0.404 ± 0.034.
The compound `CN1CCC(COc2cnc(-c3cccc(Cn4nc(-c5cccc(C#N)c5)ccc4=O)c3)nc2)CC1` had a cell viability of 1.04 ± 0.039.
As to `COc1cc(C(=O)NC2CCCNC2)cc(OC)c1OC` (configuration not stated) [Troxipide], the cell viability is 1.08 ± 0.05.
As to `C[C@]12CC[C@@H]3c4ccc(O)cc4CC[C@H]3[C@@H]1CCC2=O` [Estrone], the cell viability was determined as 1.01 ± 0.037.
Under `CCCCCCCCc1ccc(CCC(N)(CO)CO)cc1` [Fingolimod (FTY720) HCl] stands 0.937 ± 0.012; under `Cc1ccc(-c2c(-c3nn(C)c4ncnc(N5CC[C@H](N6CCCCC6)C5)c34)cnn2C)cc1`, 1.01 ± 0.065; under `O=C1OC(CN2CCOCC2)CN1/N=C/c1ccc([N+](=O)[O-])o1` (configuration not stated) [Furaltadone HCl], 1.08 ± 0.034.
`CC(C)(C(=O)NCC(F)(F)C(F)(F)F)C(=O)N[C@@H]1C(=O)Nc2ccccc2-c2ccccc21` showed a cell viability of 1.09 ± 0.023.
As for `Cc1cc(C)c(CNC(=O)c2cc(-c3ccc(N4CCN(C)CC4)nc3)cc3c2c(C)cn3C(C)C)c(=O)[nH]1`, the figure is 0.998 ± 0.011; as for `COC(=O)[C@H](CCSC)NC(=O)c1ccc(NC[C@@H](N)CS)cc1-c1ccccc1`, 0.925 ± 0.024.
Under `CCOc1cc(N)c(Cl)cc1C(=O)NCC1CN(Cc2ccc(F)cc2)CCO1` (configuration not stated) [Mosapride Citrate] stands 1.02 ± 0.046; under `CCC(C)n1ncn(-c2ccc(N3CCN(c4ccc(OCC5COC(Cn6cncn6)(c6ccc(Cl)cc6Cl)O5)cc4)CC3)cc2)c1=O` (configuration not stated) [Itraconazole], 0.972 ± 0.031; under `Cc1cccc(Nc2ccccc2C(=O)O)c1C` [Mefenamic Acid], 1.07 ± 0.025.
As for `C=CCn1c(=O)c2cnc(Nc3ccc(N4CCN(C)CC4)cc3)nc2n1-c1cccc(C(C)(C)O)n1`, the figure is 0.402 ± 0.025; as for `Clc1ccc(C(Cn2ccnc2)OCc2csc3c(Cl)cccc23)c(Cl)c1` (configuration not stated) [Sertaconazole nitrate], 0.981 ± 0.06; as for `CC1(C)S[C@@H]2[C@H](NC(=O)Cc3ccccc3)C(=O)N2[C@H]1C(=O)O` [Penicillin G Sodium], 1.02 ± 0.023.
On to `CCCCc1nc(Cl)c(CO)n1Cc1ccc(-c2ccccc2-c2nnn[nH]2)cc1` [Losartan Potassium (DuP 753)], for which the cell viability was 1.01 ± 0.065.
As for `O=C(Nc1cccc2cccnc12)c1ccc(N2C(=O)[C@@H]3[C@H](C2=O)[C@@H]2C=C[C@H]3C2)cc1` [IWR-1-endo], the figure is 0.811 ± 0.029; as for `O=C1CCC(N2C(=O)c3ccccc3C2=O)C(=O)N1` (configuration not stated) [Thalidomide], 1.042 ± 0.0051; as for `c1cn2cc(-c3ccc4cn[nH]c4c3)nc(Nc3ccc(N4CCOCC4)cc3)c2n1`, 0.857 ± 0.053.
As for `C[C@H](CCC(=O)NCCS(=O)(=O)O)[C@H]1CC[C@H]2[C@@H]3[C@@H](O)C[C@@H]4C[C@H](O)CC[C@]4(C)[C@H]3CC[C@]12C` [Sodium Tauroursodeoxycholate (TUDC)], the figure is 0.953 ± 0.043; as for `O=C(Nc1cccc(Nc2ncc(Br)c(NCCc3cnc[nH]3)n2)c1)N1CCCC1`, 0.713 ± 0.041; as for `COc1ccccc1N1CCN(CCCNc2cc(=O)n(C)c(=O)n2C)CC1` [Urapidil HCl], 1.04 ± 0.078.
Under `CN(C)CCCn1cc(C2=C(c3c[nH]c4ccccc34)C(=O)NC2=O)c2ccccc21` stands 1.02 ± 0.041.
Regarding `COc1nc(N)nc2c1ncn2[C@@H]1O[C@H](CO)[C@@H](O)[C@@H]1O` [Nelarabine], the cell viability came out at 0.984 ± 0.057.
As for `O=c1c2ccccc2nc2n1CCc1c-2[nH]c2ccccc12` [Rutaecarpine], the figure is 0.98 ± 0.02; as for `O=C(/C=C/C=C/c1ccc2c(c1)OCO2)N1CCCCC1` [Piperine], 1 ± 0.044; as for `CCC(=O)OCC(=O)[C@@]1(OC(=O)CC)[C@@H](C)C[C@H]2[C@@H]3CCC4=CC(=O)C=C[C@]4(C)[C@@]3(Cl)[C@@H](O)C[C@@]21C` [Beclomethasone dipropionate], 0.87 ± 0.038.
On to `Cc1cc(C)nc(SCC(=O)Nc2ncc(Cc3cccc4ccccc34)s2)n1`, for which the cell viability was determined as 0.925 ± 0.023.
Under `O=C1NC(=O)[C@@H](c2cn3c4c(cccc24)CCC3)[C@@H]1c1c[nH]c2ccccc12` [Tivantinib (ARQ 197)] stands 0.469 ± 0.045.
In turn, `C[C@H]1Oc2cc(cnc2N)-c2c(nn(C)c2C#N)CN(C)C(=O)c2ccc(F)cc21` came in with a cell viability of 0.961 ± 0.14.
Under `C[C@@]1(c2cc(-c3cncnc3)c(F)cc2F)CCSC(N)=N1` stands 0.988 ± 0.037.
As for `CCOC(=O)Nc1ccc(NCc2ccc(F)cc2)nc1N` [Flupirtine maleate], the figure is 1.01 ± 0.013; as for `CCOc1cc(C(C)(C)C)ccc1C1=N[C@@](C)(c2ccc(Cl)cc2)[C@@](C)(c2ccc(Cl)cc2)N1C(=O)N1CCN(CCCS(C)(=O)=O)CC1`, 0.912 ± 0.0094.
Under `O=C(O)CCCC[C@@H]1SC[C@@H]2NC(=O)N[C@@H]21` [Biotin (Vitamin B7)] stands 0.996 ± 0.046; under `O=C(/C=C/N1C[C@H]2C[C@@H]1CN2c1ccccn1)c1ccccc1O`, 1.11 ± 0.056.
On to `CC(=O)SCC(Cc1ccccc1)C(=O)NCC(=O)OCc1ccccc1` (configuration not stated) [Racecadotril], for which the cell viability was 0.954 ± 0.043.
As for `C[C@H](CCC(=O)O)[C@H]1CC[C@H]2[C@@H]3CC[C@@H]4C[C@H](O)CC[C@]4(C)[C@H]3CC[C@]12C` [Lithocholic acid], the figure is 1.01 ± 0.03; as for `Cn1c(Nc2ccc(C(F)(F)F)cc2)nc2cc(Oc3ccnc(-c4ncc(C(F)(F)F)[nH]4)c3)ccc21`, 0.85 ± 0.043.
